Laboratory results taken from the supplement of paper PMC3334620.
In all, about 33,000 sequences were measured (“E-score (-0.5 to 0.5)”: median about -0.056, highest 2% from about 0.38 on). This is one part of the list.

These sequences were tested against Stb4 (UniProt P50104) (assay: PBM E-score (8-mer binding enrichment) (E-score (-0.5 to 0.5)); higher = stronger / more preferred TF binding; most listed sequences are background and not binding sites). Conditions: protein concentration: 200 nM; construct: GST-DNA-binding domain.
In short: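 Universal all-10-mer Agilent arrays, fresh or stripped once, were converted to double-stranded form by primer extension. GST-tagged yeast transcription factors from PURExpress in vitro transcription/translation, full-length or DNA-binding domain only, were applied at about 100-200 nM and detected with fluorescent anti-GST. After masliner normalisation, the Universal PBM Analysis Suite scored each ungapped eight-base word together with its reverse complement by E-score.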

| Sequence | PBM E-score |
| --- | --- |
| ATTGGCTG | -0.167 |
| GGATTCAC | 0.0333 |
| AGGCCTCC | -0.095 |
| CGGCTCAA | 0.258 |
| TATTGTAA | -0.174 |
| TCACCTCA | -0.236 |
| AGCCCTAG | -0.194 |
| GCTAACCA | 0.00902 |
| CGTGATGA | -0.235 |
| ATGCTAAT | -0.149 |
| CATTAAAA | 0.105 |
| GGAGGCCC | -0.0916 |
| CGCCGGGC | 0.211 |
| AAGTCGCT | -0.13 |
| GAGCTTAC | 0.0515 |
| GTTACTAA | -0.00315 |
| CTGTTCGC | -0.109 |
| CTGGGGTA | -0.16 |
| GCCCACCC | 0.209 |
| ATACCGTA | 0.0819 |
| GGGTCTAA | -0.0158 |
| GTCGGGTA | 0.445 |
| CTTAGATA | -0.191 |
| AATCGCCT | 0.0262 |
| ATGGCCAT | 0.0174 |

| Sequence | PBM E-score |
| --- | --- |
| AACGCTCG | 0.0556 |
| CCAAACTC | -0.0175 |
| ACCCGCGC | 0.271 |
| CGACCTAC | -0.0695 |
| GATGGGGC | -0.135 |
| GGCCTACA | -0.0926 |
| AAAATCGC | -0.0557 |
| CGGGGAAC | 0.268 |
| CCGTACAG | 0.135 |
| ACGGCAGG | -0.0518 |
| GTATATGA | 0.132 |
| ATTTACTA | 0.0313 |
| GGGTTCAA | -0.182 |
| ATTTTTCG | 0.139 |
| CCGGATAA | 0.452 |
| GTTGGAGA | -0.156 |
| CTCTCCCA | -0.22 |
| GTTGTGAA | -0.189 |
| ACGGGAAT | 0.256 |
| CTATTGTC | -0.116 |
| TCCTCTCA | -0.256 |
| GATGGAAA | -0.0119 |
| ACCAAGTA | -0.247 |
| GGGTGCGA | 0.0773 |
| TGTTCAAA | -0.0966 |

| Sequence | PBM E-score |
| --- | --- |
| AGGTGTCA | 0.0338 |
| CCGAAAAA | 0.434 |
| AAAAATCA | -0.115 |
| GTTCAGGA | -0.188 |
| CCATACAA | -0.0118 |
| CAAATTAC | 0.064 |
| GAGACGAC | 0.183 |
| CTTAGGAA | -0.00094 |
| ACGATAGG | -0.0517 |
| AGAGTAAC | 0.0571 |
| GACGTTAA | -0.0579 |
| TCAACTAA | -0.0884 |
| AACTTAGG | -0.168 |
| GTCTGGCA | -0.0325 |
| ACCGTAGT | 0.145 |
| TGTGTAAA | 0.0503 |
| AAACCCAA | -0.0654 |
| ATGAATTC | 0.0126 |
| CAATCACA | -0.11 |
| AACAATCA | -0.131 |
| ATCATAGG | -0.0447 |
| CACTTTCC | 0.169 |
| ACCCGAAG | 0.424 |
| GCGTTAGC | -0.127 |
| AATTTCTA | -0.0282 |

| Sequence | PBM E-score |
| --- | --- |
| GTGCCCCA | -0.228 |
| AAACCCGG | 0.327 |
| TCAGACAA | -0.127 |
| GGGCGATA | -0.073 |
| CAGATAAA | -0.0389 |
| ATGTCCTG | -0.0641 |
| AAAATCAT | 0.0295 |
| AATGGAGT | -0.205 |
| ACCTAGCT | -0.193 |
| AGGTCTTC | -0.147 |
| GATCTTTA | -0.0355 |
| ATTGGATG | -0.103 |
| GACCACCA | 0.0102 |
| GGCCATTA | -0.0595 |
| CAGTTGGC | -0.241 |
| ACGCGATA | -0.157 |
| CACATACG | -0.212 |
| CGTGTACC | 0.0757 |
| CGGTCTGA | 0.152 |
| AATATCGG | 0.376 |
| GTTGCCAA | -0.164 |
| AATCGCAG | -0.152 |
| ACTATTAA | -0.147 |
| AGAAATGC | -0.071 |
| ATTCTGGA | -0.0422 |

| Sequence | PBM E-score |
| --- | --- |
| CGAGGAAC | 0.234 |
| AAGCAGCA | -0.253 |
| ATTAGTCA | -0.051 |
| CAAAACAA | -0.416 |
| GACATTCC | 0.0197 |
| AGGCGCTA | -0.118 |
| CACTCATG | -0.242 |
| CTTGCACC | -0.0465 |
| ACGCACAG | -0.12 |
| CCGCCCAC | 0.175 |
| AGGCTAAA | -0.163 |
| CACCGTTA | -0.195 |
| AATGATTA | -0.0909 |
| AAGGATCC | 0.12 |
| GGCGACAC | 0.125 |
| CGTCTCGA | -0.0363 |
| CCGGCAAG | 0.281 |
| GTCTATGA | -0.163 |
| AAATATTG | 0.176 |
| AGTTCATC | -0.107 |
| GGCGGGTA | 0.271 |
| AAGGATGT | -0.113 |
| AACTATAC | -0.0848 |
| AACGTTAC | -0.0209 |
| GAAGATCA | 0.074 |

| Sequence | PBM E-score |
| --- | --- |
| GCGATGCA | -0.154 |
| GTCGCGAA | -0.0989 |
| ACCGACAT | 0.183 |
| ACCAAACC | -0.0527 |
| CGAACAGA | 0.173 |
| AAGATCAC | -0.0333 |
| CCAGGCTC | -0.0779 |
| GCCAGGTA | -0.117 |
| TATCCGAA | 0.493 |
| GAGAGCCA | -0.187 |
| CCGGGTTC | 0.344 |
| CGAGGATC | 0.125 |
| AAGGGCTA | -0.138 |
| GGGTGACC | 0.0752 |
| CCTGGGAG | -0.132 |
| ACTTGACG | -0.181 |
| CTTTGCGA | 0.0006 |
| AAGGCCTA | -0.225 |
| ACCCTCTG | -0.101 |
| CGTGTTAG | 0.0675 |
| GAAAGGTC | 0.0718 |
| GCATGTTA | -0.0344 |
| CATTTACA | -0.142 |
| CGCGCTTA | -0.0252 |
| CTAGTTTA | -0.336 |

| Sequence | PBM E-score |
| --- | --- |
| AGGACGAG | -0.249 |
| AAAGTGGA | -0.0498 |
| ACTCATAT | -0.0576 |
| GAGAGGCC | 0.0272 |
| AATTGTGT | -0.149 |
| GGTTGATA | 0.145 |
| AGGAAGTG | -0.0171 |
| GTACGTGA | -0.0671 |
| ATGAAATG | -0.178 |
| GCGTCTTA | -0.123 |
| GGCTGAAC | 0.0897 |
| CCGACACC | 0.369 |
| ACGACGTA | -0.114 |
| AACTACCT | 0.0233 |
| ATACGGTG | -0.169 |
| CCGGTAAC | 0.293 |
| GCGCAACA | -0.153 |
| ATCAACAA | -0.0984 |
| ACGATGCC | -0.0705 |
| ATAAGTTG | -0.0962 |
| CTAAAGCC | -0.16 |
| TTCCCCAA | -0.219 |
| ACTATACT | -0.197 |
| CAAGTTAA | -0.174 |
| CCCATTTC | -0.0665 |

| Sequence | PBM E-score |
| --- | --- |
| AAATAGCT | -0.0177 |
| GTGCGCTA | -0.244 |
| CTGTTCAA | -0.068 |
| CACGCTTC | 0.0187 |
| CTATCATA | 0.0567 |
| AAACGACT | -0.128 |
| TATTTTGA | -0.151 |
| GCCATTTA | -0.162 |
| CAGCATCA | -0.24 |
| ATGGGAAT | -0.159 |
| GCATGCCA | -0.143 |
| TCGTCCAA | -0.164 |
| CAAAGGCA | -0.0391 |
| TAGACAAA | -0.302 |
| AATGTTCG | 0.14 |
| CCAGGCCA | -0.175 |
| CCGTCCCC | 0.176 |
| ATACTTTA | -0.135 |
| ATCTCTAG | -0.137 |
| CTGCATAC | -0.0132 |
| CGGTACCC | 0.259 |
| CCCAGCAG | -0.0831 |
| AACTGGCA | -0.0695 |
| CCGCATGC | 0.167 |
| AACTCAAT | -0.00367 |

| Sequence | PBM E-score |
| --- | --- |
| GCGAATAC | -0.125 |
| AACAATGG | -0.189 |
| CAGGACCG | -0.049 |
| CTACAGGA | -0.2 |
| CGGGCTCC | 0.1 |
| AAATGATC | 0.0559 |
| CTTATCAC | -0.277 |
| GGATGCGA | -0.00382 |
| ACCCTATA | -0.346 |
| ATTCCATC | 0.0842 |
| AGGAAACT | -0.0937 |
| CGGGCGGA | 0.348 |
| AAAGATAA | -0.0473 |
| GGCCTTAC | -0.0692 |
| CTCACGTC | 0.0256 |
| GAAACGAA | 0.0595 |
| AAAATATG | -0.0124 |
| CGGGACTA | 0.274 |
| CCCAATTA | -0.141 |
